# From the supplement of paper PMC10037445
# Values joined by “and” are separate entries in the source; they are usually repeats but may differ in a detail not shown here. Equal values may be shown once. Whole data set: some 2,900 compounds, median “NF-kB SEAP reporter activity, fold change vs agonist alone” near 0.99, cut for the highest 2% near 2.6. This is one part of the list.
# Key:
# [1] = system: RAW-Dual; assay: NF-kB SEAP reporter activity, fold change vs agonist alone; higher = enhanced NF-kB activity
# In short: (§1)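 After 50 nL of library stock was delivered by pin tool to RAW-Dual macrophages (50,000 cells/well, DMEM, 384-well plates), a PRR agonist was added 1 h later and the plates were kept at 37 °C, 5% CO2. Twenty hours later, IRF was read from supernatant by QuantiLuc luminescence and NF-κB by QuantiBlue absorbance at 620 nm. Reporter activity is stated as fold change over agonist-alone wells. Wells with IncuCyte confluency under 70% of agonist controls in both mask sets were counted as cytotoxic.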
# [2] = system: RAW-Dual; assay: NF-kB SEAP reporter activity, fold change vs agonist alone; cytotoxicity flag (confluency mask): not cytotoxic; higher = enhanced NF-kB activity
# In short: as §1
# [3] = library stock concentration (final ~1000-fold dilution): 10 mM, cytotoxicity flag (confluency mask): not cytotoxic, agonist: Imiquimod (TLR7) […]
# [4] = library stock concentration (final ~1000-fold dilution): 10 mM, cytotoxicity flag (confluency mask): not cytotoxic, agonist: MPLA (TLR4) […]
# [5] = agonist: ODN 1826 (TLR9) 0.5 ug/mL
# [6] = agonist: Pam2CSK4 (TLR2/6) 0.1 ug/mL
# [7] = agonist: Pam3CSK4 (TLR2/1) 0.1 ug/mL
smiles,measurement,setting,value
CC(C)=CCC[C@](C)(O[C@@H]1O[C@H](CO[C@@H]2O[C@H](CO)[C@@H](O)[C@H](O)[C@H]2O)[C@@H](O)[C@H](O)[C@H]1O)[C@H]1CC[C@]2(C)[C@@H]1[C@H](O)C[C@@H]1[C@@]3(C)CC[C@H](O[C@@H]4O[C@H](CO)[C@@H](O)[C@H](O)[C@H]4O[C@@H]4O[C@H](CO)[C@@H](O)[C@H](O)[C@H]4O)C(C)(C)[C@@H]3CC[C@]12C,NF-kB SEAP reporter activity,[1]; [3],0.765
same,NF-kB SEAP reporter activity,[1]; [4],0.931
CCCC(=O)OCOC(=O)C1=C(C)NC(C)=C(C(=O)OC)C1c1cccc(Cl)c1Cl (stereo not drawn) (library stock concentration (final ~1000-fold dilution): 10 mM),NF-kB SEAP reporter activity,[2]; agonist: LPS (TLR4) 0.1 ug/mL,0.954
same,NF-kB SEAP reporter activity,[2]; [5],1.19
same,NF-kB SEAP reporter activity,[2]; [6],0.911
same,NF-kB SEAP reporter activity,[2]; [7],1.1
CCCC(=O)OCOC(=O)C1=C(C)NC(C)=C(C(=O)OC)C1c1cccc(Cl)c1Cl (stereo not drawn),NF-kB SEAP reporter activity,[1]; [3],1.02
same,NF-kB SEAP reporter activity,[1]; [4],0.958
CN1CCN(c2ccc(OC(F)(F)F)c(Nc3ncc4c(n3)-c3c(c(C(N)=O)nn3CCO)CC4)c2)CC1 (library stock concentration (final ~1000-fold dilution): 10 mM),NF-kB SEAP reporter activity,[2]; agonist: LPS (TLR4) 0.1 ug/mL,0.453
same,NF-kB SEAP reporter activity,[2]; [5],0.703
same,NF-kB SEAP reporter activity,[2]; [6],0.551
same,NF-kB SEAP reporter activity,[2]; [7],0.737
CN1CCN(c2ccc(OC(F)(F)F)c(Nc3ncc4c(n3)-c3c(c(C(N)=O)nn3CCO)CC4)c2)CC1,NF-kB SEAP reporter activity,[1]; [3],0.865
same,NF-kB SEAP reporter activity,[1]; [4],0.831
CN(C/C=C/C#CC(C)(C)C)Cc1cccc2ccccc12,NF-kB SEAP reporter activity,[1]; [3],1.6
same,NF-kB SEAP reporter activity,[1]; [4],2.02
CN(C/C=C/C#CC(C)(C)C)Cc1cccc2ccccc12 (library stock concentration (final ~1000-fold dilution): 10 mM),NF-kB SEAP reporter activity,[2]; agonist: LPS (TLR4) 0.1 ug/mL,4.26
same,NF-kB SEAP reporter activity,[2]; [5],0.849
same,NF-kB SEAP reporter activity,[2]; [6],0.95
same,NF-kB SEAP reporter activity,[2]; [7],1.44
O=C1NC(=O)/C(=C/c2cccc(C(F)(F)F)c2)S1 (library stock concentration (final ~1000-fold dilution): 10 mM),NF-kB SEAP reporter activity,[2]; agonist: LPS (TLR4) 0.1 ug/mL,0.461
same,NF-kB SEAP reporter activity,[2]; [5],0.505
same,NF-kB SEAP reporter activity,[2]; [6],0.442
same,NF-kB SEAP reporter activity,[2]; [7],0.222
O=C1NC(=O)/C(=C/c2cccc(C(F)(F)F)c2)S1,NF-kB SEAP reporter activity,[1]; [3],0.601
same,NF-kB SEAP reporter activity,[1]; [4],0.661
CC#Cc1cncc(-c2ccc3c(c2)C2(N=C(C)C(N)=N2)C2(CCC(OC)CC2)C3)c1 (stereo not drawn),NF-kB SEAP reporter activity,[1]; [3],1.18
same,NF-kB SEAP reporter activity,[1]; [4],1.01
CC#Cc1cncc(-c2ccc3c(c2)C2(N=C(C)C(N)=N2)C2(CCC(OC)CC2)C3)c1 (stereo not drawn) (library stock concentration (final ~1000-fold dilution): 10 mM),NF-kB SEAP reporter activity,[2]; agonist: LPS (TLR4) 0.1 ug/mL,1.15
same,NF-kB SEAP reporter activity,[2]; [5],0.723
same,NF-kB SEAP reporter activity,[2]; [6],0.809
same,NF-kB SEAP reporter activity,[2]; [7],0.972
Cn1cc(-c2ccc3nnc(Sc4ccc5ncccc5c4)n3n2)cn1,NF-kB SEAP reporter activity,"[1]; library stock concentration (final ~1000-fold dilution): 2 mM, cytotoxicity flag (confluency mask): not cytotoxic, agonist: Imiquimod (TLR7) […]",1
same,NF-kB SEAP reporter activity,"[1]; library stock concentration (final ~1000-fold dilution): 2 mM, cytotoxicity flag (confluency mask): not cytotoxic, agonist: MPLA (TLR4) […]",1
Cn1cc(-c2ccc3nnc(Sc4ccc5ncccc5c4)n3n2)cn1 (library stock concentration (final ~1000-fold dilution): 2 mM),NF-kB SEAP reporter activity,[2]; agonist: LPS (TLR4) 0.1 ug/mL,1.33
same,NF-kB SEAP reporter activity,[2]; [5],1.02
same,NF-kB SEAP reporter activity,[2]; [6],1.16
same,NF-kB SEAP reporter activity,[2]; [7],1.11
CC1(C)CCC2(C(=O)O)CCC3(CO)C(=CCC4C5(C)CC(O)C(OC6OC(CO)C(O)C(O)C6O)C(C)(C(=O)O)C5CCC43C)C2C1 (stereo not drawn),NF-kB SEAP reporter activity,[1]; [3],0.922
same,NF-kB SEAP reporter activity,[1]; [4],1.01
CC1(C)CCC2(C(=O)O)CCC3(CO)C(=CCC4C5(C)CC(O)C(OC6OC(CO)C(O)C(O)C6O)C(C)(C(=O)O)C5CCC43C)C2C1 (stereo not drawn) (library stock concentration (final ~1000-fold dilution): 10 mM),NF-kB SEAP reporter activity,[2]; agonist: LPS (TLR4) 0.1 ug/mL,1.15
same,NF-kB SEAP reporter activity,[2]; [5],0.882
same,NF-kB SEAP reporter activity,[2]; [6],1.06
same,NF-kB SEAP reporter activity,[2]; [7],1.1
CN1CCN(C2CCN(C(=O)Nc3cc(Oc4ccc(NC(=O)C5(C(=O)Nc6ccc(F)cc6)CC5)c(F)c4)ccn3)CC2)CC1,NF-kB SEAP reporter activity,"[1]; library stock concentration (final ~1000-fold dilution): 10 mM, cytotoxicity flag (confluency mask): cytotoxic (confluency <70% of control), agonist: Imiquimod (TLR7) […]",2.76
CC(C)(C)Cn1c(N)nc2ccc(-c3[nH]c(C(C)(C)C)nc3-c3ccc(F)cc3)nc21.CS(=O)(=O)O.CS(=O)(=O)O (library stock concentration (final ~1000-fold dilution): 10 mM water),NF-kB SEAP reporter activity,[2]; agonist: LPS (TLR4) 0.1 ug/mL,1.03
same,NF-kB SEAP reporter activity,[2]; [5],0.512
same,NF-kB SEAP reporter activity,[2]; [6],0.242
same,NF-kB SEAP reporter activity,[2]; [7],0.506
CC(C)(C)Cn1c(N)nc2ccc(-c3[nH]c(C(C)(C)C)nc3-c3ccc(F)cc3)nc21.CS(=O)(=O)O.CS(=O)(=O)O,NF-kB SEAP reporter activity,"[1]; library stock concentration (final ~1000-fold dilution): 10 mM water, cytotoxicity flag (confluency mask): not cytotoxic, agonist: Imiquimod (TLR7) […]",0.303
same,NF-kB SEAP reporter activity,"[1]; library stock concentration (final ~1000-fold dilution): 10 mM water, cytotoxicity flag (confluency mask): not cytotoxic, agonist: MPLA (TLR4) […]",0.892
O=C(O)CSCC(=O)NC1CCSC1=O (stereo not drawn) (library stock concentration (final ~1000-fold dilution): 10 mM),NF-kB SEAP reporter activity,[2]; agonist: LPS (TLR4) 0.1 ug/mL,1.33
same,NF-kB SEAP reporter activity,[2]; [5],1.08
same,NF-kB SEAP reporter activity,[2]; [6],1.12
same,NF-kB SEAP reporter activity,[2]; [7],0.974
O=C(O)CSCC(=O)NC1CCSC1=O (stereo not drawn),NF-kB SEAP reporter activity,[1]; [3],0.922
same,NF-kB SEAP reporter activity,[1]; [4],1.04
COc1ccccc1C(=O)Nc1cc2c(cc1N1CCNCC1C)n(C)c(=O)n2C (stereo not drawn) (library stock concentration (final ~1000-fold dilution): 10 mM),NF-kB SEAP reporter activity,[2]; agonist: LPS (TLR4) 0.1 ug/mL,1.48
same,NF-kB SEAP reporter activity,[2]; [5],0.383
same,NF-kB SEAP reporter activity,[2]; [6],0.997
same,NF-kB SEAP reporter activity,[2]; [7],0.973
COc1ccccc1C(=O)Nc1cc2c(cc1N1CCNCC1C)n(C)c(=O)n2C (stereo not drawn),NF-kB SEAP reporter activity,[1]; [3],1.01
same,NF-kB SEAP reporter activity,[1]; [4],1.37
COc1ccc2nc([S+]([O-])Cc3ncc(C)c(OC)c3C)[nH]c2c1 (stereo not drawn) (library stock concentration (final ~1000-fold dilution): 10 mM),NF-kB SEAP reporter activity,[2]; agonist: LPS (TLR4) 0.1 ug/mL,0.958 and 1.17
same,NF-kB SEAP reporter activity,[2]; [5],0.94 and 1.03
same,NF-kB SEAP reporter activity,[2]; [6],0.986 and 1.08
same,NF-kB SEAP reporter activity,[2]; [7],0.965 and 0.978
CCCCCCCCCCCCCCCC(=O)OC1C(SC)OC(C(NC(=O)C2CC(CCC)CN2C)C(C)Cl)C(O)C1O.Cl (stereo not drawn) (library stock concentration (final ~1000-fold dilution): 10 mM),NF-kB SEAP reporter activity,[2]; agonist: LPS (TLR4) 0.1 ug/mL,0.968
same,NF-kB SEAP reporter activity,[2]; [5],1.08
same,NF-kB SEAP reporter activity,[2]; [6],0.877
same,NF-kB SEAP reporter activity,[2]; [7],0.713
CCCCCCCCCCCCCCCC(=O)OC1C(SC)OC(C(NC(=O)C2CC(CCC)CN2C)C(C)Cl)C(O)C1O.Cl (stereo not drawn),NF-kB SEAP reporter activity,[1]; [3],1.2
same,NF-kB SEAP reporter activity,[1]; [4],0.983
